Read counts are not given, so values of variants with three or more changes are uncertain.

B1: LINE1-full (parent)
chain: UACGUAGGUGGUUUUCCCCUGAUAGUGCUAAGGGGGCCUGGAAGUUUGGACUGGGCAGAGCUCAACACAGCGUGGCAAAGUGGCUGUGGCUAGACUGCCUCUCUGGAUUCCUCGUCACUCAGCAGGGCAUCUCUGAGAGAAAUGCC

This data set covers variants of B1. As to the kind of experiment: self-cleavage, relative activity (ratio to wild type); higher = more cleavage; in vitro, sequencing; the parent is a self-cleaving ribozyme.
Take UACGUAGGUGGUUUUCCCCUGAUAGUGCUAAGGGGGCCUGGAAGCUUGGGCUGGGCAGAGCUCAACACAGCGUGGCAAAGUGGCUGUGGCUAGACUGCCUCUCUGGAUUCCUCGUCACUCAGCAGGGCAUCCCUGAGAGAAAUGCC [U45C A50G U132C]: the self-cleavage worked out at 1.23.

Take UACGUAGGUGGUUUUCCCCUGAUAGUGCUAAGGGGGCCUGGAAGUUUGGACUGGGCAGAGCUCAACACAGCGUGGCAAAGUGGCUGUGGCUAGACUGCCUCUCUGGAUUCCUCGUCACUCAGCAGGGCGUCUCUGAGAGAAAAGCA [A129G U143A C146A]: the self-cleavage is 1.34. On to UACGUAGGUGGCUUUCCCCUGAUAGUGCUAAGGGGGCCUGGAAGUUUGGACUGGGCAGAGCUCAACACAGCGUGGCAAAGUGGCUGUGGCUAGACUGCCUCUCUGGAUUCCUCGUCGCUCUGCAGGGCAUCUCUGAGAGGGAUGCC [U12C A117G A121U A140G A141G], for which the self-cleavage came out at 2.34. In the case of UACGUAGGUGGUUUUCCCCUGAUAGUGCUAAGGGGGCCUGGAAGUUUGGACUGGGCAGAGCUCAACACAGCGUGGCAAAGUGGCUGUGGCAGGACUGCCUCUCUGGAUUCCUCGUCACUCAGCAGGGCAUCUCUGAGAGAGAUGCC [U91A A92G A141G], the self-cleavage is 0.07. With UACUUAGGUGGUUUUCCCCUGAUAGUGCUAAGGGGGCCUGGAAGUUUGGACAGGGCAGAGCUCAACACAGCGUGGCAAAGUGGCUGGGGCUAGACUGCCUCUCUGGAUUCCUCGUCACCCAGCAGGGCAUCUCUGAGAGAAAUGCC [G4U U52A U87G U119C], the self-cleavage worked out at 0.31. On to UACGUAGGUGGUCUUCCCCUGAUAGUGCUAAGGGGGCCUGGAAGUUUGGACUGGGCAGAGCUCAACACAGCGUGGCAAAGUGGCUGUGGCUAGACUGCCUCUCUGGAUUCCUCAUCGCUCAGCAGGGCAUCUCUGAGGGAAAUGCC [U13C G114A A117G A138G], for which the self-cleavage was found to be 1.41. For the variant UAUGUAUGUGGUUUUCCCCUGAUAGUGCUAGGGGGGCCUGGAAGUUUGGACUGGGCAGAGCUCAACACAGCGUGGCAAAGUGGCUGUGGCUAGACUGCCUCUCUGGAUUCCUCGUCACUCAGCAGGGCAUCUCUGAGAGAAAUGCC [C3U G7U A31G], the self-cleavage was determined as 0.67.

Turning to UACGUAGGUGGUUUUCCCCUGAUAGUGCUAAGAGGGCCUGGAAGUUUGGACUGGGCAGAGCUCAACACAGCGUGGCAAAGUGGCUGUGGCUAGACUGCCUCUCGGGAUUCCUCGUCACUCAGCAGGGCAUCUCUGAGAGAAAUGUC [G33A U104G C145U], the self-cleavage came to 0.61. Turning to UACGUAGGUGGUUUUCCCCUGAUUGUGCUAAGGGGGCCUGGAAGUUUGGACUGGGCAGAGCUCAACACAGCGUGGUAAAGUGGCUGUGGCUAGACUGCCUCUCUGGAUUCCUCGUCACUCAGCAGGGCAUCUCUGAGAGAGAUGCC [A24U C76U A141G], the self-cleavage amounted to 1.7. Take UACGUAGGAGGUCUUCCCCUGAUAGUGCUAAGGGGGCCUGGAAGUUUGGACUGGGCAGAGCUCAACACAGCGUGGCAAAGUGGCAGUGGCUAGACUACCUCUCUGGAUUCCUCGUCACUCAGCAGGGCAUCUCUGAGAGAGAUGCC [U9A U13C U85A G97A A141G]: the self-cleavage was determined as 0. Turning to UACGUGGGUGGUUUUCCCCUGAUAGUGCUGAGGGGGCCUGGGGGUUCGGACUGGGCAGAGCUCAACACAGCGUGGCAAAGUGGCUGUGGCUAGACUGCCUCUCUGGAUUCCUCGUCACUCAGCAGGGCAUCUCUGAGAGAAAUGCC [A6G A30G A42G A43G U47C], the self-cleavage amounted to 2.63.

Regarding UACGUAGGCGGUUUUCCCCUGAUAGUGCUAAGGGGGCCUGGAAGUUUGGACUGGGCAGAGCUCUACACAGCGUGGCAAAGUGGCUGUGGCUAGACUGCCUCUCUGGAUUCCUCGUCACUCAGCAGGGCAUCUCUGAGAGAAAAGCC [U9C A64U U143A], the self-cleavage turned out to be 0.68. On to UACGUAGGUGGUUUUCCCCUGAUAGUGCUAAGGGGGCCUGGAAGUUUGGACUGGGCAGAGCUCAACACAGCGUGGCAAGGAGGCUGUGGCUAGACUGCCUCUCUGGAUUCCUCGUCACUCAGCAGGGCAUCUCUGGGUGAAAUGCC [A79G U81A A136G A138U], for which the self-cleavage is 1.96. As for UACGUAGGUGGUUUUCCCCCGAUAGUGCUAAGGGGGCCUGGAAGUUUGGGCUGGGCAGAGCUCAACACAGCGUGGCAAAGUGGCUGUGGCUAGGCUGCCUCUCUGGAUUCCUCGUCACUCAGCAGGGCAUCUCUGAGAGAAAUGCC [U20C A50G A94G], the figure is 0.33; as for UACGCAGGUGGUUCUCCCCUGAUAGUGCUAAGGGGGCCUGGAAGUUUGGACUGGGCAGAGCUCAACACAGCGUGGCAAAGUGGCUGUGGCUAGACUGCCUCUCUGGAUUCCGCGUCACUCAGCAGGGCAUCUCUGAGAGAAAUGCC [U5C U14C U112G], 0.77; as for UACGUAGGUGGUUUUCCCCUGAUAGUGCUAAGGGGGCCAGGAAGCUUGGACUGGGCAGAGCUCAACACAGCGUGGCAAAGAGGCUGUGGCUAGACUGCCUCUCUGGAUUCCUCGUCACUCAGCAGGGCAUCUCUGAGAGAAAUGCC [U39A U45C U81A], 2.38.

For the variant UACGUAGGUGGUUUUCCCCUGAUAGCGCUAAGGGGGCCUGGAAGUUUGGACUGGGCAGAGCUCGACACAGCGUGGCAAAGUGGCUGUGGCUAGGCUGCCUCUCUGGAUUCCUCGUCACUCAGCAGGGCAUCUCUGAGAGAAAUGCC [U26C A64G A94G], the self-cleavage worked out at 0. In the case of UACGUAGGUGGUUUUCCCCUGAUAGUGCUAAGGGGGCCUGGAAGUUCGGGCUGGGCAGAGCUCAUCACAGCGUGGCAAAGUGGCUGUGGCUAGACUGCCUCUCUGGAUUCCUCGCCACUCAGCAGGGCAUCUCUGAGAGAAAUGCC [U47C A50G A65U U115C], the self-cleavage turned out to be 0. The result for UACGUAGGUGGUUUUCCCCUGAUAGUGCUAAGGGGGCCUGGAAGUUUGGACUGGGCAGAGCUCAACACAGCGUGGCAAAGUGGCUGUGGCUAGACUGCCUCUCUGGAUUCCUCGCCACUCAGCAGGGCAUCUCCGAGAGGAAUGCC [U115C U134C A140G] reads 1.19.
